# From the supplement of paper PMC8728848
# The list shows a part of the results.
# Experiments:
# Assay in all cases: glycan array binding signal (z-score within array); higher = stronger binding
# Details in all cases: glycan notation: IUPAC condensed, linker removed
# [1] = target: Gal(b1-3)GlcNAc(b1-6)GalNAc
# Method in brief: (§1)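 The Consortium for Functional Glycomics database supplied 3228 glycan arrays, of which those lacking an available protein sequence were dropped. The binding signal, a within-array Z-score, was averaged across arrays of the same protein sequence and across linkers. Negative scores can be read as non-binding.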
# [2] = target: Gal(b1-3)GlcNAc(b1-6)[Gal(b1-3)]GalNAc
# Method in brief: as §1
# Gal(b1-3)GlcNAc6S = target: Gal(b1-3)GlcNAc6S
# Method in brief: as §1
# [3] = target: Gal(b1-3)[Fuc(a1-4)]GlcNAc
# Method in brief: as §1
# [4] = target: Gal(b1-3)[Fuc(a1-4)]GlcNAc(b1-2)Man
# Method in brief: as §1
# [5] = target: Gal(b1-3)[Fuc(a1-4)]GlcNAc(b1-2)Man(a1-3)[Gal(b1-3)[Fuc(a1-4)]GlcNAc(b1-2)Man(a1-6)]Man(b1-4)GlcNAc(b1-4)[Fuc(a1-6)]GlcNAc
# Method in brief: as §1
# [6] = target: Gal(b1-3)[Fuc(a1-4)]GlcNAc(b1-3)Gal(b1-3)[Fuc(a1-4)]GlcNAc
# Method in brief: as §1
# [7] = target: Gal(b1-3)[Fuc(a1-4)]GlcNAc(b1-3)Gal(b1-4)[Fuc(a1-3)]GlcNAc
# Method in brief: as §1
# [8] = target: Gal(b1-3)[Fuc(a1-4)]GlcNAc(b1-6)GalNAc
# Method in brief: as §1
# [9] = target: Gal(b1-3)[GlcNAc(b1-6)]GalNAc
# Method in brief: as §1
# [10] = target: Gal(b1-3)[Neu5Ac(a2-6)]GalNAc
# Method in brief: as §1
# [11] = target: Gal(b1-3)[Neu5Ac(a2-6)]GlcNAc(b1-4)Gal(b1-4)Glc
# Method in brief: as §1
# [12] = target: Gal(b1-3)[Neu5Ac(b2-6)]GalNAc
# Method in brief: as §1
# Gal(b1-4)Gal = target: Gal(b1-4)Gal
# Method in brief: as §1
# [13] = target: Gal(b1-4)GalNAc(a1-3)[Fuc(a1-2)]Gal(b1-4)GlcNAc
# Method in brief: as §1
# [14] = target: Gal(b1-4)GalNAc(b1-3)[Fuc(a1-2)]Gal(b1-4)GlcNAc
# Method in brief: as §1
# Gal(b1-4)Glc = target: Gal(b1-4)Glc
# Method in brief: as §1
# Gal(b1-4)Glc6S = target: Gal(b1-4)Glc6S
# Method in brief: as §1
# Gal(b1-4)GlcNAc = target: Gal(b1-4)GlcNAc
# Method in brief: as §1
# [15] = target: Gal(b1-4)GlcNAc(a1-6)Gal(b1-4)GlcNAc
# Method in brief: as §1
# Gal(b1-4)GlcNAc(b1-2)Man = target: Gal(b1-4)GlcNAc(b1-2)Man
# Method in brief: as §1
# [16] = target: Gal(b1-4)GlcNAc(b1-2)Man(a1-3)Man(b1-4)GlcNAc(b1-4)GlcNAc
# Method in brief: as §1
# [17] = target: Gal(b1-4)GlcNAc(b1-2)Man(a1-3)[Gal(b1-4)GlcNAc(b1-2)Man(a1-6)]Man(b1-4)GlcNAc(b1-4)GlcNAc
# Method in brief: as §1
# [18] = target: Gal(b1-4)GlcNAc(b1-2)Man(a1-3)[Gal(b1-4)GlcNAc(b1-2)Man(a1-6)]Man(b1-4)GlcNAc(b1-4)[Fuc(a1-6)]GlcNAc
# Method in brief: as §1
# [19] = target: Gal(b1-4)GlcNAc(b1-2)Man(a1-3)[Gal(b1-4)GlcNAc(b1-2)Man(a1-6)][Gal(b1-4)GlcNAc(b1-4)]Man(b1-4)GlcNAc(b1-4)[Fuc(a1-6)]GlcNAc
# Method in brief: as §1
# [20] = target: Gal(b1-4)GlcNAc(b1-2)Man(a1-3)[Gal(b1-4)GlcNAc(b1-2)Man(a1-6)][GlcNAc(b1-4)]Man(b1-4)GlcNAc(b1-4)[Fuc(a1-6)]GlcNAc
# Method in brief: as §1
# [21] = target: Gal(b1-4)GlcNAc(b1-2)Man(a1-3)[GlcNAc(b1-2)Man(a1-6)]Man(b1-4)GlcNAc(b1-4)GlcNAc
# Method in brief: as §1
# [22] = target: Gal(b1-4)GlcNAc(b1-2)Man(a1-3)[GlcNAc(b1-4)][Gal(b1-4)GlcNAc(b1-2)Man(a1-6)]Man(b1-4)GlcNAc(b1-4)GlcNAc
# Method in brief: as §1
# [23] = target: Gal(b1-4)GlcNAc(b1-2)Man(a1-3)[Man(a1-6)]Man(b1-4)GlcNAc(b1-4)GlcNAc
# Method in brief: as §1
# [24] = target: Gal(b1-4)GlcNAc(b1-2)Man(a1-6)Man(b1-4)GlcNAc(b1-4)GlcNAc
# Method in brief: as §1
# [25] = target: Gal(b1-4)GlcNAc(b1-2)Man(a1-6)[GlcNAc(b1-2)Man(a1-3)]Man(b1-4)GlcNAc(b1-4)GlcNAc
# Method in brief: as §1
# [26] = target: Gal(b1-4)GlcNAc(b1-2)Man(a1-6)[Man(a1-3)]Man(b1-4)GlcNAc(b1-4)GlcNAc
# Method in brief: as §1
# [27] = target: Gal(b1-4)GlcNAc(b1-2)[Gal(b1-4)GlcNAc(b1-4)]Man(a1-3)[Gal(b1-4)GlcNAc(b1-2)Man(a1-6)]Man(b1-4)GlcNAc(b1-4)GlcNAc
# Method in brief: as §1
# [28] = target: Gal(b1-4)GlcNAc(b1-2)[Gal(b1-4)GlcNAc(b1-4)]Man(a1-3)[Gal(b1-4)GlcNAc(b1-2)[Gal(b1-4)GlcNAc(b1-6)]Man(a1-6)]Man(b1-4)GlcNAc(b1-4)GlcNAc
# Method in brief: as §1
# [29] = target: Gal(b1-4)GlcNAc(b1-2)[Gal(b1-4)GlcNAc(b1-4)]Man(a1-3)[GlcNAc(b1-4)][Gal(b1-4)GlcNAc(b1-2)Man(a1-6)]Man(b1-4)GlcNAc(b1-4)GlcNAc
# Method in brief: as §1
# [30] = target: Gal(b1-4)GlcNAc(b1-2)[Gal(b1-4)GlcNAc(b1-4)]Man(a1-3)[GlcNAc(b1-4)][Gal(b1-4)GlcNAc(b1-2)[Gal(b1-4)GlcNAc(b1-6)]Man(a1-6)]Man(b1-4)GlcNAc(b1-4)GlcNAc
# Method in brief: as §1
# [31] = target: Gal(b1-4)GlcNAc(b1-2)[Gal(b1-4)GlcNAc(b1-6)]Man(a1-6)[Gal(b1-4)GlcNAc(b1-2)Man(a1-3)]Man(b1-4)GlcNAc(b1-4)GlcNAc
# Method in brief: as §1
# [32] = target: Gal(b1-4)GlcNAc(b1-2)[Gal(b1-4)GlcNAc(b1-6)]Man(a1-6)[Gal(b1-4)GlcNAc(b1-2)Man(a1-3)]Man(b1-4)GlcNAc(b1-4)[Fuc(a1-6)]GlcNAc
# Method in brief: as §1
# [33] = target: Gal(b1-4)GlcNAc(b1-2)[Gal(b1-4)GlcNAc(b1-6)]Man(a1-6)[GlcNAc(b1-4)][Gal(b1-4)GlcNAc(b1-2)Man(a1-3)]Man(b1-4)GlcNAc(b1-4)GlcNAc
# Method in brief: as §1
# [34] = target: Gal(b1-4)GlcNAc(b1-2)[Gal(b1-4)GlcNAc(b1-6)]Man(a1-6)[GlcNAc(b1-4)][Gal(b1-4)GlcNAc(b1-2)[Gal(b1-4)GlcNAc(b1-4)]Man(a1-3)]Man(b1-4)GlcNAc(b1-4)[Fuc(a1-6)]GlcNAc
# Method in brief: as §1
# [35] = target: Gal(b1-4)GlcNAc(b1-3)Gal(b1-3)GalNAc
# Method in brief: as §1
# [36] = target: Gal(b1-4)GlcNAc(b1-3)Gal(b1-3)GlcNAc
# Method in brief: as §1
# [37] = target: Gal(b1-4)GlcNAc(b1-3)Gal(b1-4)Glc
# Method in brief: as §1
# [38] = target: Gal(b1-4)GlcNAc(b1-3)Gal(b1-4)GlcNAc
# Method in brief: as §1
# [39] = target: Gal(b1-4)GlcNAc(b1-3)Gal(b1-4)GlcNAc(b1-2)Man(a1-3)[Gal(b1-4)GlcNAc(b1-3)Gal(b1-4)GlcNAc(b1-2)Man(a1-6)]Man(b1-4)GlcNAc(b1-4)GlcNAc
# Method in brief: as §1
binder,measurement,setting,value
"HA-11100 (Pseudomonas aeruginosa), Q02G51_PSEAB (protein) QFNPNEIKISQQGKTTLIDQSTQRAIINWKGFDVSADEAVRFNQPGVTSSTLNRVTAGQESVIAGRISAPGQVIIYNSNGVVFSGSAKVDVGSLITTTANISDEHFRQGKLIFDQPGNPDARIVNDGSISVAEKGLAAFVAPSVANNGVINARLGTVAMAAGNAATIDLYG",glycan array binding signal (z-score),[1],-0.285
same,glycan array binding signal (z-score),[2],-0.506
same,glycan array binding signal (z-score),Gal(b1-3)GlcNAc6S,-0.63
same,glycan array binding signal (z-score),[3],-0.114
same,glycan array binding signal (z-score),[4],0.084
same,glycan array binding signal (z-score),[5],1.4
same,glycan array binding signal (z-score),[6],0.352
same,glycan array binding signal (z-score),[7],-0.161
same,glycan array binding signal (z-score),[8],0.346
same,glycan array binding signal (z-score),[9],-0.525
same,glycan array binding signal (z-score),[10],-0.444
same,glycan array binding signal (z-score),[11],0.215
same,glycan array binding signal (z-score),[12],-0.442
same,glycan array binding signal (z-score),Gal(b1-4)Gal,0.769
same,glycan array binding signal (z-score),[13],0.117
same,glycan array binding signal (z-score),[14],-0.721
same,glycan array binding signal (z-score),Gal(b1-4)Glc,0.119
same,glycan array binding signal (z-score),Gal(b1-4)Glc6S,-0.493
same,glycan array binding signal (z-score),Gal(b1-4)GlcNAc,-0.135
same,glycan array binding signal (z-score),[15],-0.29
same,glycan array binding signal (z-score),Gal(b1-4)GlcNAc(b1-2)Man,-0.321
same,glycan array binding signal (z-score),[16],-0.53
same,glycan array binding signal (z-score),[17],-0.512
same,glycan array binding signal (z-score),[18],-0.259
same,glycan array binding signal (z-score),[19],-0.299
same,glycan array binding signal (z-score),[20],-0.652
same,glycan array binding signal (z-score),[21],0.056
same,glycan array binding signal (z-score),[22],-0.475
same,glycan array binding signal (z-score),[23],-0.184
same,glycan array binding signal (z-score),[24],-0.113
same,glycan array binding signal (z-score),[25],-0.042
same,glycan array binding signal (z-score),[26],0.346
same,glycan array binding signal (z-score),[27],-0.326
same,glycan array binding signal (z-score),[28],0.331
same,glycan array binding signal (z-score),[29],0.248
same,glycan array binding signal (z-score),[30],3.28
same,glycan array binding signal (z-score),[31],7.59
same,glycan array binding signal (z-score),[32],0.518
same,glycan array binding signal (z-score),[33],-0.223
same,glycan array binding signal (z-score),[34],0.438
same,glycan array binding signal (z-score),[35],-0.34
same,glycan array binding signal (z-score),[36],-0.236
same,glycan array binding signal (z-score),[37],-0.184
same,glycan array binding signal (z-score),[38],-0.048
same,glycan array binding signal (z-score),[39],0.193
